Results published in a compilation of properties of binary mixtures (doi:10.1007/s10953-014-0283-z).
The densities may have been worked out from excess volumes.

Test: xn = mol fraction of the nth substance listed
Conditions: 100 kPa

CC[NH3+].O=[N+]([O-])[O-] + O
mass density [kg/m3]
Conditions | x2 = 0 | x2 = 0.1088 | x2 = 0.2597 | x2 = 0.3682 | x2 = 0.47 | x2 = 0.579 | x2 = 0.6776 | x2 = 0.7889 | x2 = 0.8895 | x2 = 0.9499
293.15 K | 1210.6 | – | 1195.4 | – | – | – | 1158.7 | 1134.7 | 1089.1 | 1052.3
298.15 K | 1206 | 1198.1 | 1192.6 | 1187.2 | 1179.5 | 1169.4 | 1155.1 | – | – | 1049.8
303.15 K | 1201.4 | – | – | 1184.2 | 1176.3 | 1165.9 | 1151.4 | – | – | 1047.3
308.15 K | 1196.5 | – | 1186.8 | 1181.3 | – | 1162.5 | 1147.8 | 1123.8 | 1079.7 | 1044.9
313.15 K | – | 1187.8 | 1183.9 | 1178.4 | 1170 | – | 1144.1 | 1120.1 | 1076.6 | 1042.4
318.15 K | 1188.8 | 1184.7 | 1181 | 1175.4 | – | 1155.7 | 1140.5 | – | 1073.5 | 1039.9
